# According to PubChem BioAssay AID1347165 (National Center for Advancing Translational Sciences (NCATS), 2019):
# Hit rate of the full screen: of about 220,000 compounds, about 5,700 (2.6%) were called active. Inconclusive results, whose numbers are uncertain, are shown with a selection of clear calls. The call rests on the fitted dose curve; in most records, active means well fitted inhibition curve with a large enough effect; inconclusive means small, poorly fitted or top-dose-only effect; inactive means no such curve, though single readings can be large or run the other way. Potencies of inconclusive entries are doubtful fits and often do not repeat.
# Target: Lysine-specific demethylase 5B (Homo sapiens) (UniProt Q9UGL1)
# Chain of UniProt Q9UGL1 (Q9UGL1 whole entry, looked up): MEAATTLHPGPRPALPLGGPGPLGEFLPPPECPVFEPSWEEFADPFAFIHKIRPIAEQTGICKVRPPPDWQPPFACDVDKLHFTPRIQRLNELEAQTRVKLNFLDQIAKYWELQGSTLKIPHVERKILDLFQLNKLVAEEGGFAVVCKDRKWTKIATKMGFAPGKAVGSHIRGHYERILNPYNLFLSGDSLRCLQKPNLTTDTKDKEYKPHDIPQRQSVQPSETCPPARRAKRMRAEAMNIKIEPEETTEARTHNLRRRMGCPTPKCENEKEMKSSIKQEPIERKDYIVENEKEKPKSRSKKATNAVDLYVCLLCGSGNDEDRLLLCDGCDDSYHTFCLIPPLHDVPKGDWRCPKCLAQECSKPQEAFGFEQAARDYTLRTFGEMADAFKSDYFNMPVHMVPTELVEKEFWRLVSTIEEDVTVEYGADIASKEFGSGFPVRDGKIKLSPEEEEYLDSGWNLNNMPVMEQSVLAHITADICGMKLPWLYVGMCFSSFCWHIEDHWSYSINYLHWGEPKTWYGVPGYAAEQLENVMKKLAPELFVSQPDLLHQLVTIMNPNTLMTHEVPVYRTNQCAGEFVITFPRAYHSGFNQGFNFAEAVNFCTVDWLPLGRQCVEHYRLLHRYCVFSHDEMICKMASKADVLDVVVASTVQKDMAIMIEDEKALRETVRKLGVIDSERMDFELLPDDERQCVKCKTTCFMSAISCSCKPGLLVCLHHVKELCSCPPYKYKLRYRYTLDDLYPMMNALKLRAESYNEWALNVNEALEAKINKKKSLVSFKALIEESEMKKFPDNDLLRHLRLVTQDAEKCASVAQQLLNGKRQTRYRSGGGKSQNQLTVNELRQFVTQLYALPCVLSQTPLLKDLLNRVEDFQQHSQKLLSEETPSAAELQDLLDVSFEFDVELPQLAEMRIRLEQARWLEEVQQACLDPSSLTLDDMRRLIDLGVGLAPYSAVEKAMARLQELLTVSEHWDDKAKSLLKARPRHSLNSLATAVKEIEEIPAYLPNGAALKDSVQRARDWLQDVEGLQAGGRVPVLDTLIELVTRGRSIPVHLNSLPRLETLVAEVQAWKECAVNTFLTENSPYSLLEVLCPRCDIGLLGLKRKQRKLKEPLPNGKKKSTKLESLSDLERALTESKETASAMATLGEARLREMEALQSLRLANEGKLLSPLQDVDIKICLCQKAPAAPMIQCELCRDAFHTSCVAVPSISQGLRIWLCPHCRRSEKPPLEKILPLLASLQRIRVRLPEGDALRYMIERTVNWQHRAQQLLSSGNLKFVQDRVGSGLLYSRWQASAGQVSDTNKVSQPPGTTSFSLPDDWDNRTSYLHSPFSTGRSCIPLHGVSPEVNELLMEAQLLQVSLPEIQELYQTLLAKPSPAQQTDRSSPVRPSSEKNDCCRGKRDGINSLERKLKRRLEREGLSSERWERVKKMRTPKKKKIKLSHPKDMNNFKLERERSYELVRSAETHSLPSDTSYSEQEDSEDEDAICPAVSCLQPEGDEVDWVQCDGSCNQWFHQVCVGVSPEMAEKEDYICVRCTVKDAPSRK
# Assay: Primary screen for KDM5B Histone Demethylases FDH-coupled qHTS; further: nearly all actives have a fitted effect of over 70% in size; on activity change, negative = inhibition: 0% is about no effect
# Details: FDH-coupled NADH fluorescence (FDH is formaldehyde dehydrogenase); activity change, negative = inhibition: at 57.7 µM (top of the series) unless noted
# Summary of the method: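 Here, H3K4me3 peptide (12.5 µM in substrate mix) is demethylated by KDM5BΔAP, 200 nM final, after 10 min compound exposure. Formaldehyde product is coupled through FDH (0.25 U/mL in mix) to NADH fluorescence; 30-min ΔRFU feeds dose-response curves.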
# Potency means the concentration at half of the fitted maximal effect; tags describe the fitted curve by direction and shape.
Structure (SMILES),Potency,"activity change, negative = inhibition"
O=C(NCCn1cc(SCc2ccc(C(F)(F)F)cc2)c2ccccc21)c1cccs1,"inconclusive: 25.1 µM [inhibitor, partial curve, poor fit]",
COc1ccc(C(=O)Nc2ccc3oc(=O)ccc3c2)cc1,"inconclusive: 22.4 µM [inhibitor, single point]",
N#CC1(NC(=O)COC(=O)c2cc(=O)[nH]c3ccccc23)CCCCC1,"inconclusive: 35.5 µM [inhibitor, single point]",
COc1ccc(-n2nc3c(N4CCCC(C(=O)NCc5ccccc5C)C4)nnc(C)c3c2C)cc1 (stereo not given),"inconclusive: 6.31 µM [inhibitor, partial curve, poor fit]",
COCCn1c(SCC(=O)c2ccc3c(c2)OCCO3)nnc1-c1ccc(Cl)cc1,,inactive: -6.03%
O=C(Cc1ccccc1)OCC(=O)c1ccc(-c2ccccc2)cc1,"inconclusive: 39.8 µM [inhibitor, single point]",
COc1cc2c(=O)n(CCC(=O)NCC3CCCO3)c(=O)n(CC(=O)Nc3ccccc3C)c2cc1OC (stereo not given),"inconclusive: 5.01 µM [inhibitor, partial curve, poor fit]",
Cn1nccc1C(=O)NCC1Cn2cccc2C(=O)N1Cc1ccccc1 (stereo not given),"inconclusive: 8.91 µM [inhibitor, single point]",
CCc1nn(CC(=O)NCCc2ccc(OC)cc2OC)c(=O)c2cc3occc3n12,"inconclusive: 2.82 µM [inhibitor, partial curve, poor fit]",
COCCNC(=O)c1ccc2c(c1)N(C)C(CC(=O)Nc1ccc(C)nc1)CO2 (stereo not given),"inconclusive: 28.2 µM [inhibitor, partial curve, poor fit]",
CNC(=O)[C@@H]1C[C@@H](n2cc(CNC(=O)Nc3cc(F)ccc3F)nn2)CN1,"inconclusive: 12.6 µM [inhibitor, partial curve]",
Cc1ccc(CN2CCN(C(=O)CCC3CC3)C(C)C2=O)cc1 (stereo not given),,inactive: -9.77%
Cc1nc(C)c(C(=O)N2CCOCC(O)(CN3CCCC3)C2)s1 (stereo not given),"inconclusive: 17.8 µM [inhibitor, single point]",
COCCNC(=O)c1ccc(OC2CCN(C/C=C/c3ccco3)CC2)c(Cl)c1,"inconclusive: 4.47 µM [inhibitor, full curve]",
C#CCN(C)C(=O)[C@@H](C)C1CC[C@@]2(C)Cc3sc(NC(=O)C4CC4)nc3[C@@H](C)[C@@H]2[C@H]1O (stereo not given in full),"inconclusive: 39.8 µM [inhibitor, partial curve, poor fit]",
COc1ccc(-c2ccnc(-c3nnc(C)n3CCN3CCOCC3)c2)cc1OC,"inconclusive: 35.5 µM [inhibitor, partial curve, poor fit]",
O=C(COc1ccc2ccc(=O)oc2c1)NC(=O)NC12CC3CC(CC(C3)C1)C2,"inconclusive: 25.1 µM [inhibitor, partial curve, poor fit]",
CCOC(=O)c1cc(C#N)c(SCC(=O)OC)[nH]c1=O,"inconclusive: 31.6 µM [inhibitor, single point]",
O=C(CCC[C@H]1NC[C@@H]2C[C@H]1CN(Cc1ccccc1)C2)NC1CCN(Cc2ccccc2)CC1,,inactive: -22%
COc1cc2cc(CNc3ccccc3)c(=O)n(CC(=O)Nc3cccc(Cl)c3C)c2cc1OC,"inconclusive: 6.31 µM [inhibitor, partial curve, poor fit]",

Structure (SMILES),Potency,"activity change, negative = inhibition"
COCCN1C(=O)c2ccccc2C(C(=O)NCCc2c[nH]c3ccccc23)C12CCCC2 (stereo not given),active: 22.4 µM,
COc1ccc(-n2c(SCC3CCOCO3)nnc2-c2ccccc2)cc1OC (stereo not given),,inactive: 11%
NC(=O)Cc1c[nH]c2ncc(-c3ccc(Oc4ccccc4)cc3)cc12,"inconclusive: 39.8 µM [inhibitor, partial curve, poor fit]",
Cc1ccc(S(=O)(=O)NCC(c2ccccc2)c2ccccc2)cc1,,inactive: 10.7%
C[N+](C)(C)CCSSCC[N+](C)(C)C,"inconclusive: 17.8 µM [inhibitor, partial curve, poor fit]",
COc1cc(NC(=O)Cn2c(=O)n(CC3CCC(C(=O)NCCc4ccccc4)CC3)c(=O)c3ccccc32)cc(OC)c1 (stereo not given),"inconclusive: 35.5 µM [inhibitor, partial curve, poor fit]",
O=C(Nc1ccccc1)N1CCC(c2nnc3n2CCNC3)CC1,"inconclusive: 56.2 µM [inhibitor, partial curve, poor fit]",
CC(C)NC(=O)CSc1nnc(-c2cc3c(s2)CCC(C(C)(C)C)C3)n1C (stereo not given),,inactive: -18.8%
O=C(NC1CCN(c2ccc(=O)n(CC3CC3)n2)CC1)c1cnccn1,"inconclusive: 28.2 µM [inhibitor, single point]",
COCc1cc(=O)n(CC(=O)Nc2ccccc2)c(N2CCOCC2)n1,"inconclusive: 20 µM [inhibitor, partial curve]",
COc1ccc(-n2ncc3c(NCCCOC(C)C)ncnc32)cc1,"inconclusive: 28.2 µM [inhibitor, partial curve, poor fit]",
Cc1ccc(CN2CCCN(S(=O)(=O)c3ccccc3)CCC(=O)NCC2)s1,"inconclusive: 17.8 µM [inhibitor, single point]",
CCCCNC(=O)C1CCCN(S(=O)(=O)CCC)C1 (stereo not given),,inconclusive: -36.3% [inhibitor]
CCOc1ccccc1C1CC(=O)Nc2c1c(=O)n(C)c1ncnn21 (stereo not given),"inconclusive: 1.41 µM [inhibitor, full curve, poor fit]",
OC1CCOC2(CCN(Cc3ccc4cc[nH]c4c3)CC2)C1 (stereo not given),"inconclusive: 31.6 µM [inhibitor, single point]",
O=C(Nc1ccc(Oc2ccccc2)cc1)C(Cc1ccccc1)n1cnnn1 (stereo not given),,inactive: -22.3%
CC(=O)Nc1ccccc1OCc1ccc(C)cc1,,inactive: 12.7%
O=C(Oc1ccccc1)C1C2CCCC1C2c1ccccc1 (stereo not given),,inactive: 6.74%
Cc1c(C(=O)NCc2ccc(Cl)cc2)oc2ccc3c(c12)C(=O)CC(C)(C)O3,"inconclusive: 28.2 µM [inhibitor, partial curve, poor fit]",
CCN1CCN(C(=O)c2ccc(N3CC4CC(C3)[C@H]3CCCC(=O)N3C4)nc2)CC1 (stereo not given in full),"inconclusive: 20 µM [inhibitor, partial curve, poor fit]",
